Data taken from the supplement of paper PMC3334620.
Whole data set: some 33,000 sequences, median “E-score (-0.5 to 0.5)” near -0.017, cut for the highest 2% near 0.3. Some of the results follow.

Target: T1, Sut1 (UniProt P53032)
T1 sequence: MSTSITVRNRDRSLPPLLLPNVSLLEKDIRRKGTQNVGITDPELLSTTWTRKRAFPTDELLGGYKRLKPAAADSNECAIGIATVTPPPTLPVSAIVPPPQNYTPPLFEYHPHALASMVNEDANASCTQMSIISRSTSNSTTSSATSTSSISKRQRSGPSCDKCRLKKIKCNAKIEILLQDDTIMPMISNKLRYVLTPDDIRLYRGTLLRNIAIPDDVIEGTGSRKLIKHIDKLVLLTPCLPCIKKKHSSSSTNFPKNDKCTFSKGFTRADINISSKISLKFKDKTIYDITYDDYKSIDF
Test: PBM E-score (8-mer binding enrichment) (E-score (-0.5 to 0.5)); higher = stronger / more preferred TF binding; most listed sequences are background and not binding sites
Settings: protein concentration: 200 nM; construct: GST-full length
Method: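 Universal 'all 10-mer' protein binding microarrays (Agilent AMADID 015681) probed with GST-tagged S. cerevisiae TFs (full-length or DBD) made by in vitro transcription/translation (PURExpress), about 100-200 nM. Bound TF was detected with fluorescent anti-GST. Each ungapped 8-mer (which stands for itself and its reverse complement) is scored by the PBM enrichment score (E-score), a modified Wilcoxon-Mann-Whitney statistic from -0.5 to +0.5, computed with the Universal PBM Analysis Suite. Scale: above 0.35 generally sequence-specific binding.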

| Sequence | PBM E-score |
| --- | --- |
| GCCGAGAC | -0.116 |
| CATATCTC | 0.192 |
| ACGATCAT | 0.0115 |
| CAGACAGA | -0.0988 |
| CATCCCAA | -0.0743 |
| GGTACGAC | -0.26 |
| GGCTACTA | 0.101 |
| CTCGATGC | -0.0993 |
| AACGGGTC | -0.067 |
| AGCAAGAT | 0.015 |
| GACGCGAC | -0.13 |
| GTTTTGTA | 0.215 |
| CTCTTGAC | -0.103 |
| CTCCCTTC | -0.375 |
| CGTACATA | 0.144 |
| TACTTCTA | 0.043 |
| AATACAGA | 0.13 |
| ACGAGAGG | -0.127 |
| AAGCCGAG | 0.0244 |
| ACCCGACT | 0.0579 |
| GCGAATCC | 0.0479 |
| TCTATTCA | 0.138 |
| AGCGGTCA | -0.119 |
| CATTCGGC | -0.0155 |
| GGCTGACA | 0.0001 |

| Sequence | PBM E-score |
| --- | --- |
| ACGGCCTA | -0.0662 |
| AAAGGTGG | 0.0908 |
| TCCGCGCA | 0.26 |
| ACGATTAA | -0.0114 |
| ACTCAGAT | -0.152 |
| ACCTGAGC | -0.17 |
| AGATGGCA | 0.0507 |
| GTATTACA | 0.183 |
| CTGCGCGC | -0.0615 |
| AACTATCA | 0.187 |
| CGGTGCCA | -0.159 |
| AAAGCCCG | 0.208 |
| GTTCAGAA | 0.0324 |
| AATTACCG | 0.171 |
| AACATTCG | 0.107 |
| ACAGACCC | -0.136 |
| TACCTGAA | 0.0944 |
| AACAAGAA | 0.191 |
| AGTGGATG | -0.0759 |
| CAACAGCA | 0.0604 |
| AATCATAG | 0.134 |
| ATATTGAA | 0.21 |
| CAAACGAG | -0.0985 |
| CTCTAATC | 0.0258 |
| CACGAGTC | -0.0666 |

| Sequence | PBM E-score |
| --- | --- |
| GACCGGAC | 0.364 |
| CAGCGGAG | 0.242 |
| ACCTTCGC | -0.0159 |
| GCTGATGA | -0.05 |
| GCCATTCA | 0.0474 |
| AGCTGCGA | -0.115 |
| ATTAAGGA | 0.0804 |
| ATTCTTTG | 0.0841 |
| CTAGTGAA | -0.037 |
| ATCCCCAC | -0.285 |
| ACCCAAAC | 0.0569 |
| ATGTCTTC | -0.153 |
| CCAGGGAC | -0.304 |
| CTTGCGCC | -0.243 |
| CAGGTCCA | -0.231 |
| CCGACTAC | 0.137 |
| ATCGACGA | -0.0527 |
| CACCACTG | -0.159 |
| ACGAAGCG | -0.184 |
| AGTACGTA | -0.0384 |
| CAAAGTGG | -0.229 |
| GACCGACC | -0.076 |
| GTGACCGA | 0.0113 |
| GGTAGACC | -0.101 |
| AGCGCCCT | -0.128 |

| Sequence | PBM E-score |
| --- | --- |
| AAGAGGCC | -0.0799 |
| GTTCGTGA | -0.119 |
| CGCTGTTC | -0.0964 |
| CTGTTTGA | -0.076 |
| GACTTCGC | 0.0243 |
| AGTCCCTG | -0.256 |
| CCCTAGAC | -0.0768 |
| AATGTAGG | -0.0801 |
| AGCTGTGG | -0.332 |
| GCGCGAAA | 0.0601 |
| ACCGAACG | 0.105 |
| GCTCGGAA | 0.165 |
| CCTAAACG | -0.0454 |
| GCTCCCTA | -0.123 |
| GTAAAAAC | 0.0758 |
| AGTTTTAA | 0.341 |
| AGGCTACG | -0.345 |
| ATGGATCA | -0.063 |
| CCTGTGGC | -0.213 |
| AAGCCTGG | -0.0734 |
| CAAATCCC | 0.0494 |
| CATATCCA | -0.22 |
| AACAGGCT | -0.22 |
| CACAAGAC | -0.145 |
| CTGTCCGA | 0.192 |

| Sequence | PBM E-score |
| --- | --- |
| AGCACAGC | -0.0832 |
| AAGAGTAT | 0.0381 |
| AGGCCGAC | -0.244 |
| TTGGCCAA | -0.0764 |
| CAGAACAC | -0.125 |
| GCGCTAGA | -0.00213 |
| TAACTCTA | -0.0161 |
| TCGCTAGA | -0.0604 |
| AAGGTTCA | -0.028 |
| TGGCTTAA | 0.124 |
| AATACCAC | 0.0705 |
| ATTGCCAG | -0.102 |
| AAGTCAGC | 0.0175 |
| AGCACTGC | -0.162 |
| AAATTTTG | 0.143 |
| AATTTCGG | 0.242 |
| ACTGTCCT | 0.0413 |
| GGTACCAC | -0.235 |
| ATTTGGCG | 0.123 |
| AGACTCGA | -0.0746 |
| ATAGTACC | 0.204 |
| CTCGGCTA | -0.0108 |
| CTCTGGAC | -0.0873 |
| GCATAAGA | -0.0114 |
| TTCGCCAA | -0.0854 |

| Sequence | PBM E-score |
| --- | --- |
| CTGGTACC | -0.149 |
| ATGCGGAC | 0.245 |
| CGTCAATA | -0.0833 |
| CATCGGCG | -0.137 |
| ACAGTGAC | 0.0105 |
| GCTTCTCC | -0.111 |
| ATAGCGCG | -0.117 |
| CCGCCACC | -0.0978 |
| ACTCTGCG | 0.0171 |
| ACACTCTG | -0.0727 |
| TAGCCCAA | -0.0663 |
| GTGCACAC | -0.15 |
| CAACAAAC | 0.144 |
| CTAATCCA | -0.173 |
| CAGAACCG | 0.0435 |
| GAACTATC | 0.0613 |
| CGGACCCG | 0.285 |
| CGGGCTTA | 0.0898 |
| ACCTCATC | 0.0345 |
| CGCATTAC | 0.0298 |
| GCTGCACC | -0.316 |
| GAGGCCGC | -0.265 |
| AACTGTAA | 0.192 |
| CCCGGAAC | 0.129 |
| ATCTCATA | 0.0781 |

| Sequence | PBM E-score |
| --- | --- |
| AGAGCTTA | 0.00662 |
| CTACCATC | -0.0533 |
| CGTTCGGC | -0.0654 |
| AAAAGAGC | -0.0423 |
| CGTAACTA | 0.138 |
| ATGTAGGA | -0.00883 |
| ATCGACAT | 0.033 |
| CGGTTTTC | 0.176 |
| AGTATATC | 0.12 |
| GAAGGCGA | -0.0447 |
| ATCATACC | 0.16 |
| GGCTACCC | -0.233 |
| GGATCCGA | 0.146 |
| ATTATCTA | 0.187 |
| ACCCGGAC | 0.323 |
| AAAAAACA | 0.313 |
| GTTATGCA | 0.0236 |
| GACATGTC | 0.0429 |
| CCTGAGAA | -0.115 |
| TCAGTCGA | 0.016 |
| AAGAAACG | 0.127 |
| ATATACTA | 0.305 |
